# Measurements from the RNAGym collection of RNA variant scans (doi:10.1093/nar/gkz1192).
# The source gives no read counts; variants with many changes may rest on few reads.
# B1: CPEB3 Ribozyme (parent)
# chain: UAACAGGGGGCCACAGCAGAAGCGUUCACGUCGCAGCCCCUGUCAGAUUCUGGUGAAUCUGCGAAUUCUGCUGUAUAUCUC
# Variants of: B1
# Test: self-cleavage, relative activity (ratio to wild type); higher = more cleavage; in vitro, sequencing
# Procedure, shortened: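 Relative activity compares each variant's cleaved/total read fraction with that of the unmutated ribozyme. To get these fractions, barcoded CPEB3 ribozyme libraries from rounds of error-prone PCR were transcribed with T7 RNA polymerase for 5 hours at 37°C and then given 15 min of DNase I treatment before EDTA was added. The RNAs were reverse transcribed with template switching and sequenced on Illumina, and DNA sequencing linked barcodes to variants. A minimum of 5 reads applied, and three batches were averaged.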
row,Variant,self-cleavage
1,U25C G46A G63U G70U,0.18
2,U25C G53U U80C,0.36
3,U25C G55U U78G,0.08
4,U25C G61A U72G,0.09
5,U25C G63C U78C,0.19
6,U25C U26A A35U A56G U74A,0.42
7,U25C U26A A35U C40U,0.58
8,U25C U26A A45G U49C U51A U60C U69C,0.04
9,U25C U26A U31C A57G G63A U76C,0.17
10,U25C U26A U51A,0.25
11,U25C U26A U72C,0.24
12,U25C U26C A28G A64G,0.14
13,U25C U26C A35G U48C C62A,0.2
14,U25C U26C A35U,0.25
15,U25C U26C C32U U41C U51C U54C C62U,0.05
16,U25C U26C C32U U43A U58A,0.37
17,U25C U26C G33A,0.23
18,U25C U26C U31A A35G U48C G70A G73U,0.04
19,U25C U26C U31A A64U,0.2
20,U25C U26C U43C A56U C59U A64U U80C,0.08
21,U25C U26C U49C U51A C59U,0.21
22,U25C U26C U60A U76A C79A,0.04
23,U25C U26C U69C,0.18
24,U25C U26C U76A,0.22

row,Variant,self-cleavage
1,U25C U26C U80A,0.26
2,U25C U26G A57G U72C U78C,0.06
3,U25C U31A U41C,0.28
4,U25C U31A U41C U72A,0.06
5,U25C U31C A35G A57U,0.13
6,U25C U31C A35G U41A U43C,0.09
7,U25C U31C A45C,0.08
8,U25C U31C A47G A64G,0.07
9,U25C U31C A47G U72C A75U,0.17
10,U25C U31C G33U,0.35
11,U25C U31C G36A U51C U66A,0.08
12,U25C U31C U54A,0.16
13,U25C U31C U54C C62U U66C,0.14
14,U25C U31C U54C U76C,0.29
15,U25C U31G A35U A56G,0.15
16,U25C U31G A45G U78A,0.17
17,U25C U41A A47G A56U A64G U78C,0.04
18,U25C U41A A56G A64G U69C,0.06
19,U25C U41A A56U U78C,0.17
20,U25C U41A A64U U74C,0.14
21,U25C U41A U51A C68U U72C,0.1
22,U25C U41A U60C G73U,0.09
23,U25C U41A U67C,0.12
24,U25C U41A U69A U78C,0.18

row,Variant,self-cleavage
1,U25C U41A U72C U78C,0.29
2,U25C U41A U80G,0.21
3,U25C U41C A45G U76C A77G,0.08
4,U25C U41C A65G,0.21
5,U25C U41C U43A A77G,0.22
6,U25C U41C U48C,0.3
7,U25C U41C U49C U74C,0.21
8,U25C U41C U51A U72C,0.06
9,U25C U41C U51C U76C,0.2
10,U25C U41C U54A A57G,0.41
11,U25C U41C U54C C62U,0.34
12,U25C U41C U60A,0.32
13,U25C U41C U80C,0.34
14,U25C U43A A64G,0.37
15,U25C U43A A65U U69C U78C U80A,0.17
16,U25C U43C A45C U66C U80C,0.13
17,U25C U43C A45G A65G,0.16
18,U25C U43C A45U U60C,0.13
19,U25C U43C A56G U78C,0.28
20,U25C U43C C59G,0.2
21,U25C U43C G52A A64G,0.14
22,U25C U43C G55U U69A,0.08
23,U25C U43C U49A A65G U67G,0.04
24,U25C U43C U51A,0.25

row,Variant,self-cleavage
1,U25C U43C U67C A77U,0.08
2,U25C U43C U74C,0.16
3,U25C U43C U74C U80C,0.17
4,U25C U43C U76C,0.16
5,U25C U48C A56G,0.04
6,U25C U48C A64G U74C A77G,0.06
7,U25C U48C U58C A64G,0.06
8,U25C U48C U67G,0.11
9,U25C U49A C59A U60C C62U U69A,0.04
10,U25C U49C A56G G63U U78A C79A,0.14
11,U25C U49C A57G U74A A75G,0.13
12,U25C U49C U66C,0.15
13,U25C U51A A56G U58C,0.07
14,U25C U51A C62U U67C U74C,0.06
15,U25C U51A G52A U72C,0.18
16,U25C U51C A57C U60A,0.09
17,U25C U51C G70A,0.47
18,U25C U51C U60C C68A,0.07
19,U25C U51C U72C,0.15
20,U25C U51C U80C,0.22
21,U25C U51G U69C U80A,0.35
22,U25C U54A A56U A64G U66C,0.09
23,U25C U54A A56U U78A,0.15
24,U25C U54A U80G,0.17

row,Variant,self-cleavage
1,U25C U54G A65G U69C U72C,0.08
2,U25C U58C A64G,0.15
3,U25C U60A A75U,0.48
4,U25C U60C A64G U72A,0.19
5,U25C U60C U72A U76C,0.08
6,U25C U60C U78C,0.15
7,U25C U60G A65G U66A,0.11
8,U25C U67C C79A,0.13
9,U25C U67G U80A,0.37
10,U25C U72A A77G,0.07
11,U25C U72C U78C,0.09
12,U25C U74C U78C,0.46
13,U25G A28G A56U U69A,0.03
14,U25G A28G U43C U58A U78C,0.17
15,U25G A28G U51C U74C,0.11
16,U25G A28G U74G A75U,0.57
17,U25G A28U G52A U69C U72G,0.07
18,U25G A47G U51A A57U U72C,0.08
19,U25G A47U C50U A65G U67C U72C U80C,0.06
20,U25G A64U U67C U72C,0.24
21,U25G C27U C40U A56G U60A U80C,0.21
22,U25G C40U A65G U78C U80A,0.05
23,U25G C71U U80C,0.36
24,U25G G30A U31C C38A U80C,0.35

row,Variant,self-cleavage
1,U25G G30A U60C U76A,0.08
2,U25G U41C A57G,0.35
3,U25G U41C U69C,0.27
4,U25G U43C A56G U80C,0.14
5,U25G U60C G63A,0.16
6,U25G U69A U72A,0.08
7,U25G U69A U80C,0.1
8,U26A A28G A35G C71U,0.34
9,U26A A28G C32U A47G U49C A65G A77U,0.02
10,U26A A28G G30C U69C,0.12
11,U26A A28G G33A U43A A56U A65G U80C,0.08
12,U26A A28G G33C U48C U60C A64U,0.07
13,U26A A28G U43C U54C G55A U60A C62G,0.05
14,U26A A28G U78C,0.18
15,U26A A35C U51C U69C,0.21
16,U26A A35G C37G U43C A64G,0.12
17,U26A A35G G63A U80A,1.27
18,U26A A35G U41C A45U U49C A75U,0.08
19,U26A A35G U41C U72A,1.1
20,U26A A35G U48C U66C U72C,0.59
21,U26A A35G U58A U66C,0.58
22,U26A A35G U66C,1.1
23,U26A A35G U80A,1.27
24,U26A A35U U49C U51C,0.06

row,Variant,self-cleavage
1,U26A A35U U72C,0.41
2,U26A A56G A65G,0.18
3,U26A A57C A77G,0.27
4,U26A A57G U60A A65U,0.17
5,U26A A64C G73C,0.25
6,U26A A64G U80C,0.72
7,U26A A65U U80C,0.52
8,U26A C29A C37U A45U U49A A65U U67C,0.06
9,U26A C29A G33A U80C,0.25
10,U26A C29U C34A,0.1
11,U26A C29U G33A U51C,0.07
12,U26A C32A A35U C37A U54A U66C,0.07
13,U26A C32A C39U U41C U78C,0.07
14,U26A C32G G63U,0.17
15,U26A C32U U41C U78C C79U,0.08
16,U26A C34G U41C,0.14
17,U26A C34U A35C U43C U58A U74C,0.07
18,U26A C37A A57C U76C,0.07
19,U26A C37A U49C,0.07
20,U26A C37G U48C U80C,0.3
21,U26A C37U A56U U76A,0.25
22,U26A C38A U72C,0.44
23,U26A C39A A57C,0.07
